The record followed here is article PMC12820563, “FoxP3 forms a head-to-head dimer in vivo and stabilizes its multimerization on adjacent microsatellites”.

The other results are listed elsewhere or left out.

This assay addresses T1, MBP-FoxP1dN (Mus musculus, UniProt P58462 326-579).
T1 sequence: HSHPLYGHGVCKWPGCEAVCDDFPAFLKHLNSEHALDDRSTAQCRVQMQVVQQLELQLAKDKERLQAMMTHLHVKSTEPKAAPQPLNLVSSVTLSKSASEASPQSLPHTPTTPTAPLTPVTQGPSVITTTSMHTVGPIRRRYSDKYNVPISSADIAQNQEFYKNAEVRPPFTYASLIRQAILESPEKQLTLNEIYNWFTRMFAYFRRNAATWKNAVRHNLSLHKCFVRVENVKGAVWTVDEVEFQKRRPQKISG
Briefly: PD-seq (MBP pull-down with sequencing); 20 mM Tris-HCl pH 7.5, 100 mM NaCl, 1.5 mM MgCl2, 0.4 uM protein, 0.1 uM dsDNA library, 30 min, room temperature, amylose pull-down; high values mean tight binding. The settings on record: protein: recombinant; tags: His6-MBP; chain copies: 2; dsDNA, one strand shown. The gist of the method: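 A fragment of mouse FoxP3 or FoxP1 without its N-terminus, carrying a His6-MBP tag and produced in E. coli, was combined at 0.4 µM with a 0.1 µM degenerate double-stranded DNA library filled in with Klenow. The mixture sat for 30 min at room temperature in Tris pH 7.5 buffer containing NaCl and MgCl2. Protein–DNA complexes were captured on amylose resin, washed three times, and the DNA was freed with proteinase K, barcoded by PCR and sequenced on Illumina. Binding is expressed as reads-per-million enrichment of pull-down over input, with replicates pooled.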
With “GATGATTGTTCTCCCAGCTGATGAATTCTTGACATCGAGTAAACAAATTTTCCTAATCTTTCTGTTCAAGCGCCATCTAC”, the binding signal was 0.978 RPM ratio (pull-down/input). In the case of “GATGATTGTTCTCCCAGCTGATGAATTAGAGATGTCGAGTAAACAAATTTTCCTAATCTTTCTGTTCAAGCGCCATCTAC”, the binding signal was 1 RPM ratio (pull-down/input). Under “GATGATTGTTCTCCCAGCTGATGAATTTGGAGGCTCGAGTAAACAAATTTTCCTAATCTTTCTGTTCAAGCGCCATCTAC” stands 0.932 RPM ratio (pull-down/input); under “GATGATTGTTCTCCCAGCTGATGAATTGGAGGGCTCGAGTAAACAAATTTTCCTAATCTTTCTGTTCAAGCGCCATCTAC”, 0.812 RPM ratio (pull-down/input). Take “GATGATTGTTCTCCCAGCTGATGAATTAAGCGAATCGAGTAAACAAATTTTCCTAATCTTTCTGTTCAAGCGCCATCTAC”: the binding signal was 1.04 RPM ratio (pull-down/input). Under “GATGATTGTTCTCCCAGCTGATGAATTGAAGCTATCGAGTAAACAAATTTTCCTAATCTTTCTGTTCAAGCGCCATCTAC” stands 0.906 RPM ratio (pull-down/input); under “GATGATTGTTCTCCCAGCTGATGAATTGTCCAGATCGAGTAAACAAATTTTCCTAATCTTTCTGTTCAAGCGCCATCTAC”, 0.878 RPM ratio (pull-down/input). Turning to “GATGATTGTTCTCCCAGCTGATGAATTCATACGATCGAGTAAACAAATTTTCCTAATCTTTCTGTTCAAGCGCCATCTAC”, the binding signal was 0.856 RPM ratio (pull-down/input). In the case of “GATGATTGTTCTCCCAGCTGATGAATTAGCAGTATCGAGTAAACAAATTTTCCTAATCTTTCTGTTCAAGCGCCATCTAC”, the binding signal is 1.04 RPM ratio (pull-down/input). For the sequence “GATGATTGTTCTCCCAGCTGATGAATTGCGTACGTCGAGTAAACAAATTTTCCTAATCTTTCTGTTCAAGCGCCATCTAC”, the binding signal was 1.1 RPM ratio (pull-down/input). Next, “GATGATTGTTCTCCCAGCTGATGAATTGGTCCGATCGAGTAAACAAATTTTCCTAATCTTTCTGTTCAAGCGCCATCTAC”: 0.88 RPM ratio (pull-down/input); “GATGATTGTTCTCCCAGCTGATGAATTGTATGTCTCGAGTAAACAAATTTTCCTAATCTTTCTGTTCAAGCGCCATCTAC”: 1.19 RPM ratio (pull-down/input). Next, “GATGATTGTTCTCCCAGCTGATGAATTATCTGACTCGAGTAAACAAATTTTCCTAATCTTTCTGTTCAAGCGCCATCTAC”: 0.913 RPM ratio (pull-down/input); “GATGATTGTTCTCCCAGCTGATGAATTAAAGTCATCGAGTAAACAAATTTTCCTAATCTTTCTGTTCAAGCGCCATCTAC”: 1.09 RPM ratio (pull-down/input); “GATGATTGTTCTCCCAGCTGATGAATTTCGACTATCGAGTAAACAAATTTTCCTAATCTTTCTGTTCAAGCGCCATCTAC”: 0.919 RPM ratio (pull-down/input). Next, “GATGATTGTTCTCCCAGCTGATGAATTGTTATGCTCGAGTAAACAAATTTTCCTAATCTTTCTGTTCAAGCGCCATCTAC”: 1.55 RPM ratio (pull-down/input); “GATGATTGTTCTCCCAGCTGATGAATTAACCCTGTCGAGTAAACAAATTTTCCTAATCTTTCTGTTCAAGCGCCATCTAC”: 0.839 RPM ratio (pull-down/input).

For “GATGATTGTTCTCCCAGCTGATGAATTAACGGTTTCGAGTAAACAAATTTTCCTAATCTTTCTGTTCAAGCGCCATCTAC”, the binding signal is 0.872 RPM ratio (pull-down/input).
